# Assay results as given in the RNAGym collection of RNA variant scans (doi:10.1073/pnas.2313332121).
# Variants at the floor of the assay are shown more often than the library holds them.
# B1: TPR 5TU (parent)
# chain: GGAUCUUCUCGAUCUAACAAAAAAGACAAAUCUGCCACAAAGCUUGAGAGCAUCUUCGGAUGCAGAGGCGGCAGCCUUCGGUGGCGCGAUAGCGCCAACGUUCUCAACUAUGACACGCAAAACGCGUGCUCCGUUGAAUGGAGUUUAUCAUG
# Variants of: B1
# Assay: polymerase ribozyme fitness, log enrichment relative to wild type (log ratio); higher = more active; in vitro selection for triplet polymerase activity
# Summary of the method: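 Each subunit of a heterodimeric triplet polymerase ribozyme was represented by a PCR-built, transcribed mutant library that underwent triplicate single-round in vitro selection with frozen incubation at −7 °C. Extended constructs were recovered by gel excision, streptavidin-bead capture and RT-PCR, and Illumina sequencing of input and output libraries kept genotypes with ≥10 input reads and ≥1 read per output. Fitness is the logarithm of genotype enrichment relative to wild-type enrichment, from inverse-variance-weighted replicate averages, with a logarithm base of 2.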
row,Variant,polymerase ribozyme fitness (log ratio)
1,GGAUCUUCUCGAUCUAACAACAUAGACAAAUCUGGCACAAAGCUUGAGAGCAUCUUCGCAUGCAGAGGCGGCAGCCUUCGGUGGCGCGAUGGCGCCAACGUUCGCAACUAUGACACGCAAAAGGCGUGCUCCGUUGAAUGGUGUUUAUCAUG [A21C A23U C35G G59C A91G U104G C123G A142U],≤ -4.2
2,GGAUCUUCUCGAUCUAACAACAAAGACAAAUCUGCCACAAAGCUUGAGAGCAUCUUCGGAUGCAGAGGCGGCAGCCUUCGGUGGCGCGAUUGCGCCAACGUUCUCGACUAUGACACGCAAAACGCGUGCUCCGUUGAAUGGAGUUUAUCAUG [A21C A91U A106G],≤ -4.2
3,GGAUCUUCUCGAUCUAACAACAAAGACAAAUUUGCCACAAAGCUUGAGAGCAUCUUCGGAUGCAGAGGCGGCAGCCUUCCGUGGUGCGAUAGCGCCAACGUUCUCUACUAUGACACGCAAAACGCGUGCUCCGUUGAAUGGACUUUAUCAAG [A21C C32U G80C C85U A106U G143C U151A],≤ -4.2
4,GGAUCUUCUCGAUCUAACAACAAAGACAAAUCUGCCACAAAGCUUGAGAGCAUCUUCGGAUGCUGAGGCGGCAGCCUUCGGGGGCACGAUAGCGCCAACGUUCUCAACUAUGACACGCAAAACGCGUGCUCCGUUGAAUGGAGUUUAUCAUG [A21C A64U U82G G86A],≤ -4.2
5,GGAUCUUCUCGAUCUAACAACAAAGACAAAUCUGCCACAAAGCUUGCGAGCAUCUUCGGAUGCAGAGGCGGCAGCCUUCGGUGGGUCGAUAGCGCCAACGUUCUCAACUAUGACACGCAAAACGCGUGCUCCGUUGAAUGGAGUUUAUCGUG [A21C A47C C85G G86U A150G],≤ -4.2
6,GGAUCUUCUCGAUCUAACAACAAAGACUAUUCUGCCACAAAGCUUGGGAGCAUCUUCGGAUGCAGAGGCGGCAGCCUUCGGUGGCGCGAUAGCGCCAACGUUCUCAACUAUGACACGCAAAACGCGUGCUCCGUUGAAUGGAGUUUAUCAUG [A21C A28U A30U A47G],≤ -4.2
7,GGAUCUUCUCGAUCUAACAACACAGACAAAUCUGCCACAAAACUUGAGAGCAUCUUUGGAUGCAGAGGCGGCAGACUUCGGUGGAGCGAUAGCGCCAACGUUCUCGGCGAUGACACGCAAAACGCGUGCUCCGUUGAAUGGAGUUUAUCAUG [A21C A23C G42A C57U C75A C85A A106G A107G U109G],≤ -4.2
8,GGAUCUUCUCGAUCUAACAACAAAGACAAAUCUGCCACAAUGCUUGAGAGCAUCUUCGGAUGCAGAGGCGGCAGCUUUCGGUGACGCGAUAGCGUCAACGUUCUCAACUAGGACACGCAAAACGCGUGCUCCGUUGAAUGGAGUUUAUCAUG [A21C A41U C76U G84A C95U U111G],-4.18
9,GGAUCUUCUCGAUCUAACAACGAAGACAAAUCUGCCACAAAGCUAGAGAGCAUCUUCCGAUGCAGAGGCGGCGGCCUUUGGUGGCGCGAUAGCGCCAACGUUCUCAACUAUGACACGCAAAACGCGUGCUCCGUUGAAUGGAGUUUAUCAUG [A21C A22G U45A G58C A73G C79U],≤ -4.2
10,GGAUCUUCUCGAUCUAACAACAAAGACAAAUCUGCCACAAAGCUUAAGAGCAUCUUCGGAUGCAGAGGCGGCAGCCCUCGGUGGCGCGAUAGCGCCAACGUUCUCAACUAUGACACGCAAUACGCGUGCUCCGUUGAAUGGAGUUUAUCAUG [A21C G46A U77C A121U],≤ -4.2
11,GGAUCUUCUCGAUCUAACAACAAAGACAAAUAUGCCACAAAGCUUGAGAGCAUCUUCGGAUGCAGAGGCGGCAGCCUUCGGUGGCGCGAUAGCGCCAACGUUCUCAACUAUGACACGCAAAACGCGUGCUCCGUUGUAUGGAGUUUAUCAUG [A21C C32A A137U],≤ -4.2
12,GGAUCUUCUCGAUCUAACAACAAAGACAAAUCUGCCACAACGCUUGAGAGCAUCUUCGGGUGCAGAGGCGGCAGCGUUCGGUUGCGCGAUAGCGCCAACGUUAUCAACUAUGACACGCAAAACGCGUGCUCCGUUGAAUGCAGUUUAUCAUG [A21C A41C A60G C76G G83U C103A G141C],≤ -4.2
13,GGAUCUUCUCGAUCUAACAACAAAGACAAAUCUGCCACAAAGCUUGAGAGCAUCUUCGGAUGCAGAGGCGGCAGCCUUCGGUGGCGCGAUUGCGCCAACGUUCUCAACUAUGACACGCAAAACGCGUGCUCCGUUGAAUGGAGUUUAUCAUG [A21C A91U],≤ -4.2
14,GGAUCUUCUCGAUCUAACAACAAAUACAAAUCUGCCACAAAGCUUGAGAGCAUCUUCGGAUGCAGAGGCGGCAGCCUUCGGUGGCGCGAUAGCGCCAACGUUCUCAACUAUGACACGCAAAACGCGUGCUCCGUUGAAUGAAGCUUAUCAUG [A21C G25U G141A U144C],≤ -4.2
15,GGAUCUUCUCGAUCUAACAACAAAGACAAAUCUGCCUCAAAGCUUGAGAGCAUCUUCGGAUGCAGAGGCGGCAGCUUUCGGUGGCGUGAUAGCGCCAACGUUCUCAACUAUGACACGCAAAACGCGUGCUCCGUUGAAUGGAGUUUAUCAUG [A21C A37U C76U C87U],-1.62
16,GGAUCUUCUCGAUCUAACAACAAAGACAAAUCUGCCACAAAGCUUGUGAGCAUCUUCGGAUGCAGAGGCGGCAGCAUUCGGUGGCGCGAUAGGGCCAACGUUCUCAACUAUGACACGCAAAACGCGUGCUCCGUUGAAUAGAGUUUAUCAUG [A21C A47U C76A C93G G140A],≤ -4.2
17,GGAUCUUCUCGAUCUAACAACAUAGACAAAUCUGCCCCAAAGCUUGAGAGCUGCUUCGGAUGCAGAGGCGGCAGCCUUCGGUGGCGCGAUAGCGCAAACGUUCUCAACUAUGACACGCAAAACGCGUGCUCCGUUGAAUGGAGUUUAUCAUU [A21C A23U A37C A52U U53G C96A G152U],≤ -4.2
18,GGAUCUUCUCGAUCUAACAACAAAGACAAAUCUGCCACAAAGCUUGAGAGCAUCUUCGAAUGCAGAGGCGGCAGUCUUCGGUGGCGAGAUAGCGCCAACGUUCUCUACUAUGACACGCAAAACGCGUGCUCCGGUGAAUGGAGUUUAUCAUG [A21C G59A C75U C87A A106U U134G],≤ -4.2
19,GGAUCUUCUCGAUCUAACAACAAAGACAAAUCUGCCACAAAGUUUGAGAGCAUCUUCGGAAGUAGAGGCGGCAGCCUUCGGUGGCGCGAUAGCGCCAACGUUCUCAACUAGGACACGCAAAACGCGUGCUCCGUUGAAUGGAGUUUAUCAUG [A21C C43U U61A C63U U111G],≤ -4.2
